Measured values: the supplement of paper PMC3334620
The full ranking holds about 33,000 sequences; the median of “E-score (-0.5 to 0.5)” is about -0.054, and the highest 2% start at about 0.35. Some of the results follow.

Each sequence was assayed against T1, Stb5 (UniProt P38699) (assay: PBM E-score (8-mer binding enrichment) (E-score (-0.5 to 0.5)); higher = stronger / more preferred TF binding; most listed sequences are background and not binding sites). Conditions: protein concentration: 200 nM; construct: GST-full length.
T1 sequence: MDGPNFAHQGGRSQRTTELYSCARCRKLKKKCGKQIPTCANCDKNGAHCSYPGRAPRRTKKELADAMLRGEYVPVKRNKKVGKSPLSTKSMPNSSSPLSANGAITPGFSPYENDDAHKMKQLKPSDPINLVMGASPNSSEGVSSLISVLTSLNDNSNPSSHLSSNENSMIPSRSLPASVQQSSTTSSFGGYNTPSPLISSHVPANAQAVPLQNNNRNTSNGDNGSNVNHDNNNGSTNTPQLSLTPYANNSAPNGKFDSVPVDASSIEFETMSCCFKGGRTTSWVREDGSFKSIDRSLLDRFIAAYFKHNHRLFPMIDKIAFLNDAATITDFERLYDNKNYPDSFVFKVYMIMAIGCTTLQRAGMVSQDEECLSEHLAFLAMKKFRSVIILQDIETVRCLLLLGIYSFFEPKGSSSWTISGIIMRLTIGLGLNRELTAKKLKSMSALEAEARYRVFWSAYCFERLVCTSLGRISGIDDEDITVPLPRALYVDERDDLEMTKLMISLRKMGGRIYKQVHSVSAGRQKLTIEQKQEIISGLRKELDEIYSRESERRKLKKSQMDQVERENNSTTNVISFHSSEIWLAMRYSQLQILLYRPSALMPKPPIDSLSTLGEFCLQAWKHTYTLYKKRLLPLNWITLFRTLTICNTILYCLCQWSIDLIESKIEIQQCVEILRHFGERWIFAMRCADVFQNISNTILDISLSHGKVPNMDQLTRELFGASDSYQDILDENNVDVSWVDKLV
How it was run: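 Bound GST-tagged yeast transcription factors, applied at about 100-200 nM to double-stranded universal all-10-mer Agilent arrays, were detected with fluorescent anti-GST. Scans were normalised with masliner. A modified Wilcoxon-Mann-Whitney statistic, the E-score, was assigned to each ungapped eight-base word pooled with its reverse complement by the Universal PBM Analysis Suite.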

| Sequence | PBM E-score |
| --- | --- |
| TCGTAGAA | -0.206 |
| ATAGGTGC | -0.0237 |
| CCCCGGCA | 0.313 |
| CATTACAG | -0.0483 |
| AGGCATAG | -0.133 |
| CGAGATAA | 0.029 |
| CGGGTTAA | 0.221 |
| GGGGTGTA | 0.178 |
| CGCCATCA | 0.0442 |
| AGCACCTA | -0.104 |
| CATGACGG | 0.149 |
| ACTGTATC | -0.0524 |
| AACGCACC | 0.153 |
| ATACAGTC | 0.0184 |
| GGAAATAA | 0.274 |
| AAAAGGGG | -0.0511 |
| ATCTTCGC | 0.0285 |
| ATGGAATG | -0.0749 |
| TATCCAGA | -0.0392 |
| CCGGGCCG | 0.31 |
| AACAGAAC | -0.101 |
| CACCTTAC | -0.0754 |

| Sequence | PBM E-score |
| --- | --- |
| TAGAAGGA | 0.0207 |
| AGGCTCTG | -0.403 |
| ACACATGA | -0.254 |
| ATTGATTC | -0.0553 |
| ATAGCGTG | -0.0578 |
| AGGATAGC | -0.116 |
| TCAACTGA | -0.194 |
| AAATGGTG | 0.0218 |
| ACCGTCTG | 0.238 |
| GGAAACGA | -0.208 |
| AAGCAGCC | -0.289 |
| AGAATTAA | -0.166 |
| TCCGCCGA | 0.346 |
| AACCGGTT | 0.166 |
| AATGCCAT | -0.0216 |
| CAGGTCAG | -0.188 |
| GCAGGTCA | -0.17 |
| AACCGGGT | 0.205 |
| ACACAGAA | -0.184 |
| GATATAAA | 0.146 |
| GATTATGC | 0.0744 |
| ACGGCAAC | 0.105 |

| Sequence | PBM E-score |
| --- | --- |
| AAGAACCT | -0.256 |
| CCCGAGCG | 0.175 |
| CCTAATGA | -0.235 |
| CTATGTCA | -0.221 |
| ACTATTGG | -0.114 |
| AGGCTTTC | -0.158 |
| ACAACTTG | -0.219 |
| CGTTGAGA | 0.0833 |
| ACCCTTGC | -0.0893 |
| ACACCACA | -0.00034 |
| GTAATTAA | 0.0741 |
| CTAACGTA | -0.0684 |
| GGTATCTA | 0.151 |
| AGAGTGAC | -0.255 |
| TCATATGA | 0.201 |
| ACGCTCTC | 0.0416 |
| GGCATCTA | 0.0687 |
| GGACGTCA | -0.046 |
| ACAAACTA | -0.19 |
| ATTCTTAG | -0.0603 |
| ACACCCTG | -0.329 |
| CCCCCGTC | 0.233 |

| Sequence | PBM E-score |
| --- | --- |
| AATTCTCG | -0.186 |
| GGCATGAA | 0.0813 |
| CCGCGTCC | 0.106 |
| AATGTAAT | 0.0627 |
| AGAACGCC | -0.0964 |
| AATGCAAA | -0.0786 |
| GATTAACC | -0.0011 |
| AAAAAATA | -0.0888 |
| TATACCAA | -0.106 |
| AGTTCTCA | -0.0835 |
| GTATTGAA | -0.0683 |
| CGGCGAAG | 0.116 |
| TCTGGCAA | -0.27 |
| GCTATCAA | 0.0386 |
| CGCGCGTA | 0.123 |
| TGTCTCAA | -0.145 |
| GTCTACCA | -0.222 |
| AACAAATC | 0.0491 |
| AGGTTATG | -0.0259 |
| AGCTCGAT | -0.253 |
| GATCTGGA | -0.087 |
| GAAGCTAA | -0.0899 |

| Sequence | PBM E-score |
| --- | --- |
| CTGTAAAA | -0.0191 |
| GCTACTCC | 0.00567 |
| ACAGTATA | -0.0674 |
| ACTGGTTC | -0.0622 |
| CCGCTGCG | 0.33 |
| ACTATTAT | 0.0237 |
| GGAGCCAC | -0.0783 |
| ATGGTCTC | -0.248 |
| ATCGAGCA | -0.147 |
| CAAATGGG | -0.245 |
| CGCAGGCA | 0.103 |
| CCAACCAG | -0.144 |
| ATACGTAA | 0.0168 |
| CACGCCGA | 0.133 |
| CTCTCTAC | -0.0828 |
| CCGACACG | 0.285 |
| ATGGGTGA | -0.12 |
| GTTCCACA | -0.0543 |
| CGGTCGCA | 0.265 |
| GGGCACCA | -0.0676 |
| CGGTCCCA | 0.358 |
